# Assay results: PubChem BioAssay AID504333 (National Center for Advancing Translational Sciences (NCATS), 2011)
# Values joined by “and” are separate entries in the source; they are usually repeats but may differ in a detail not shown here. Identical values can stand only once. About 16,000 (4.4%) of roughly 360,000 compounds were called active. The shares of active, inactive and inconclusive entries below differ from those in the screen. Calls come from the whole dose curve; as a rule, active = well fitted inhibition curve with a large enough effect; inconclusive = small, poorly fitted or top-dose-only effect; inactive = no such curve, though single readings can be large or run the other way. Potencies of inconclusive entries are doubtful fits and often do not repeat.
# Biological target: Bromodomain adjacent to zinc finger domain protein 2B (Homo sapiens) (UniProt Q9UIF8)
# UniProt Q9UIF8, sequence (Q9UIF8 whole entry, looked up, the tested form may be a part): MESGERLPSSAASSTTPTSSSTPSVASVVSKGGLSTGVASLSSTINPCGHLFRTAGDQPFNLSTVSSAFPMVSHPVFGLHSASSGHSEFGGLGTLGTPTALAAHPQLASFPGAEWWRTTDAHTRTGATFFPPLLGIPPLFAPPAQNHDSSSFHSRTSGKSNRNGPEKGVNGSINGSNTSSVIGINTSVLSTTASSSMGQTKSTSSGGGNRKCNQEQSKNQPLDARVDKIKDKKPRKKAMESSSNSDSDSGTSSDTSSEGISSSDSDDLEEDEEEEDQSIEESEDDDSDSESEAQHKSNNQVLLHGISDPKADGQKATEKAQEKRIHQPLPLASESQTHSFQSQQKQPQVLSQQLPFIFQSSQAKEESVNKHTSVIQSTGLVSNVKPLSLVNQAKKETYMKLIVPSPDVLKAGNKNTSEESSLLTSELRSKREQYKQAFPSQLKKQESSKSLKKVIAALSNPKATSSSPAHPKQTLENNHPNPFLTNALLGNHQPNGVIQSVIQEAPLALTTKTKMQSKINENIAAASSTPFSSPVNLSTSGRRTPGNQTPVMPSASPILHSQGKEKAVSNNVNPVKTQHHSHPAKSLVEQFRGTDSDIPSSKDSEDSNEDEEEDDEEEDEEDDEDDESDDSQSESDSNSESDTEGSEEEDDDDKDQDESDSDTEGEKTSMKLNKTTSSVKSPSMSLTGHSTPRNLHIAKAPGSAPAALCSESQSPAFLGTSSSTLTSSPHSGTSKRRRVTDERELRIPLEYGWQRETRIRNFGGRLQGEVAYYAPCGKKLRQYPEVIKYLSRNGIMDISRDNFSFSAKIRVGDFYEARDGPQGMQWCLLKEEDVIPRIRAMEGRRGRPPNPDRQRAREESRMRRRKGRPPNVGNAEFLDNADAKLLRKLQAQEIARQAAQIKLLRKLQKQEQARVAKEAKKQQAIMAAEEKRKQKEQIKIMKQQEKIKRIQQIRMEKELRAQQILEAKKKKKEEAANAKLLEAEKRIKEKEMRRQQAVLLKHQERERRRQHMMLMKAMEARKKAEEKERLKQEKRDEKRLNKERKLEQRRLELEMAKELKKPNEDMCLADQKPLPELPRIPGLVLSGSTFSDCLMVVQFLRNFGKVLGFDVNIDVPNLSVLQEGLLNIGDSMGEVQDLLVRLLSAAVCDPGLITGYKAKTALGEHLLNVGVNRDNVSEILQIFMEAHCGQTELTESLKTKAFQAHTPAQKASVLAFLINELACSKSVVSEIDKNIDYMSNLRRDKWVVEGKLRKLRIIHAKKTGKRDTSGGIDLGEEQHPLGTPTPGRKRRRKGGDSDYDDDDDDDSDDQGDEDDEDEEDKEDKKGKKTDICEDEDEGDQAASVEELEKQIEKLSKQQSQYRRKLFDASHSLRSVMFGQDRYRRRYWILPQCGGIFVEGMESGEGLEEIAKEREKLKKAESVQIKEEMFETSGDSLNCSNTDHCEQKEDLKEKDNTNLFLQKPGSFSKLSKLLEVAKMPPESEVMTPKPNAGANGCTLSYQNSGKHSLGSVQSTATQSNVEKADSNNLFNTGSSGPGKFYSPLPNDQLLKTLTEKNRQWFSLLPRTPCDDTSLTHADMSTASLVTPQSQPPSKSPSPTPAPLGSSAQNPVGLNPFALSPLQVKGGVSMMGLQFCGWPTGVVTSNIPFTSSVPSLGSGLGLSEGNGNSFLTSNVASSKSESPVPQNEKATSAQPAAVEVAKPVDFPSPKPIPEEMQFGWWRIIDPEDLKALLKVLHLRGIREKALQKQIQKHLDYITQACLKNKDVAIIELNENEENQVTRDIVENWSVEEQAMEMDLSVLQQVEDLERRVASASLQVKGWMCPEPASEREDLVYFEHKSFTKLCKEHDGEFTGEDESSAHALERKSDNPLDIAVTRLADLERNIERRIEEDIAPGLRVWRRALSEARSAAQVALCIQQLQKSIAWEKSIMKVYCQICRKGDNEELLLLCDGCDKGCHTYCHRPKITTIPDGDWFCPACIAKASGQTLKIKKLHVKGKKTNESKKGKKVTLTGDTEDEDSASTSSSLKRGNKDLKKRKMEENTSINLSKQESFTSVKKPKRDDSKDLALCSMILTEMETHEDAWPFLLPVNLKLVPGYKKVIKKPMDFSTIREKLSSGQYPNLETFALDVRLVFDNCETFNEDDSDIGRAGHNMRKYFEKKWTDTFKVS
# Experiment: qHTS Assay for Inhibitors of BAZ2B; note: nearly all actives have a fitted effect of over 60% in size
# Settings: AlphaScreen BAZ2B-H3K14Ac peptide displacement; activity change, negative = inhibition: at 114 µM (top of the series) unless noted
# Outline: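 Complex of BAZ2B and biotin-H3K14Ac (50 nM apiece) forms over 30 min at RT, then faces library compounds up to 110 uM for another 30 min; AlphaScreen beads added, 20 min dark incubation, luminescence read.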
# % is set by controls: 0 for no effect and ±100 for the full control effect; potency is the fitted concentration of half-maximal effect; tags give direction and shape of the fitted curve.
SMILES,Potency,"activity change, negative = inhibition"
COc1ccc(N2CCN(C3(c4ccccc4)C(=O)c4ccccc4C3=O)CC2)cc1,active: 7.08 µM,
Cc1ccc(Cn2c(CO)cnc2SCC(=O)NCc2ccccc2Cl)cc1,"inconclusive: 7.94 µM [inhibitor, full curve, poor fit]",
O=S(=O)(/N=C(/Nc1cccc2ccccc12)c1ccccc1)c1ccccc1,,inactive: -16.4%
Cc1c(Cl)cccc1NC(=S)/C(=C(\[O-])c1ccc(Cl)s1)[n+]1ccccc1,"inconclusive: 79.4 µM [inhibitor, single point]",
COCCSc1ccccc1C(=O)Nc1ccc(Cl)cc1,"inconclusive: 79.4 µM [inhibitor, single point]",
O=C(CCN1C(=O)/C(=C\c2cccs2)SC1=S)NC1=NCCS1,"inconclusive: 39.8 µM [inhibitor, partial curve]",
CCOC(=O)C1NN=C(C(=O)c2ccccc2)C1c1ccc(OC)cc1 (stereo not given),,inactive: -26.3%
N#Cc1c(N)n(CCOC(=O)c2cccc([N+](=O)[O-])c2)c2nc3ccccc3nc12,,inactive: -10.3%
CCOc1ccc(CCNC(=O)c2cc3sccc3n2CC)cc1OCC,"inconclusive: 44.7 µM [inhibitor, partial curve] and inconclusive: 22.4 µM [inhibitor, full curve]",
Fc1ccc(CSc2nncn3c2cc2occc23)c(Cl)c1,"inconclusive: 28.2 µM [inhibitor, full curve]",
CCn1c(O)c(/C=N/n2cnnc2)sc1=S,"inconclusive: 44.7 µM [inhibitor, partial curve]",
CC(=O)Nc1ccc(S(=O)(=O)N2CCc3cc4c(cc3C2C)OCCCO4)cc1 (stereo not given),"inconclusive: 70.8 µM [inhibitor, single point]",
COc1cccc(/C=N/N2C(=O)NC3(CCCCC3)C2=O)c1O,,inactive: 3.12%
Cc1ccc(N(C)S(=O)(=O)c2ccc(-c3coc(C)n3)cc2)cc1,"inconclusive: 39.8 µM [inhibitor, partial curve]",
CCOC(=O)c1c(NC(=O)C2CCCO2)sc2c1CCC2 (stereo not given),,inactive: -36.3%
COc1ccc(OC)c(Nc2cc(C(=O)NCCCN3CCOCC3)c3ccccc3n2)c1,"inconclusive: 79.4 µM [inhibitor, single point]",
CCN(CCO)c1nc(SC)nc2c1sc1nc(-c3ccco3)c3c(c12)CCC3,active: 50.1 µM,
Cc1cc(C)c(C#N)c(Nc2ccc(F)cc2)n1,"inconclusive: 89.1 µM [inhibitor, single point]",
CN(C)CCN(C(=O)c1ccc2c(c1)OCCO2)c1nc2cc3c(cc2s1)OCO3,"inconclusive: 31.6 µM [inhibitor, partial curve]",
Cc1ccc(/C=C/C(=O)N2CCC(c3nc4ccccc4o3)CC2)cc1,"inconclusive: 89.1 µM [inhibitor, single point]",
N#Cc1cnc(NN)nc1,active: 22.4 µM,
O=[N+]([O-])c1cc([N+](=O)[O-])c2c(=Nc3ccccc3)n(-c3ccccc3)n(O)c2c1,active: 20 µM,
COCC(=O)Nc1nc2n(n1)C(c1ccccc1)CC(c1ccc(OC)cc1)N2 (stereo not given),"inconclusive: 89.1 µM [inhibitor, single point]",

SMILES,Potency,"activity change, negative = inhibition"
COc1ccccc1NC(=O)CSc1ccc(-c2ccco2)nn1,"inconclusive: 70.8 µM [inhibitor, partial curve]",
COc1ccc(OC)c(-c2csc(NC(=O)CSc3ccc([N+](=O)[O-])cc3)n2)c1,"inconclusive: 31.6 µM [inhibitor, partial curve]",
O=C(CSCc1ccccc1)Nc1cc([N+](=O)[O-])ccc1F,"inconclusive: 50.1 µM [inhibitor, partial curve]",
CCCCCOc1ccccc1CN1C(=O)C(=O)c2cc(C)ccc21,active: 6.31 µM,
CCOC(=O)c1c(C)c(C(=O)N2CCN(c3ccccc3)CC2)c(C)n1C,"inconclusive: 70.8 µM [inhibitor, partial curve]",
O=C(O)c1cccc2c(-c3ccccc3)c(-c3ccccc3)[nH]c12,"inconclusive: 28.2 µM [inhibitor, full curve]",
CN(O)/C=N/C(=S)Nc1ccc(Cl)cc1Cl,"inconclusive: 79.4 µM [inhibitor, partial curve]",
CCOC(=O)c1ccc(NCc2ccc(N(C)C)cc2)cc1,active: 11.2 µM,
Cn1cccc1/C=N/n1cnnc1,active: 79.4 µM,
S=C(NC1CCCC1)N1CCN(C/C=C/c2ccccc2)CC1,"inconclusive: 70.8 µM [inhibitor, single point]",
CCCC(=O)OCC(=O)c1[nH]c(C)c(C(C)=O)c1C,"inconclusive: 89.1 µM [inhibitor, single point]",
COc1ccc(C2CC(=O)c3cnc4c(-c5ccc(F)cc5)c(C)nn4c3C2)cc1OC (stereo not given),,inactive: -15.6%
COC(=O)c1c(C)oc2c1cc(NS(=O)(=O)c1ccc(C(=O)O)cc1)c1ccccc12,"inconclusive: 79.4 µM [inhibitor, single point]",
CN(C)c1ccc(C2C3CCCc4ccccc4C3=NN2C)cc1 (stereo not given),active: 31.6 µM,
COc1ccc(-n2ncc(C(=O)N3CCN(C4CCCCC4)CC3)c2C2CCN(C(=O)OC(C)(C)C)CC2)cc1,,inactive: 1.96% [at 57.1 µM]
Cn1c(=O)n(CC(=O)O)c(=O)c2c1nc1n2CCCN1c1ccc(Cl)cc1,,inactive: -16.7%
Cc1ccc(C(C)C)c(OCCNCCc2ccccc2)c1,"inconclusive: 89.1 µM [inhibitor, single point]",
O=C1c2ccccc2N2C(=O)c3ccccc3C2N1Cc1ccco1 (stereo not given),"inconclusive: 50.1 µM [inhibitor, partial curve]",
CN(C)S(=O)(=O)c1cccc(NC(=O)CNCc2ccccn2)c1,active: 20 µM,
CCc1ccc(NC(=O)C2CCCN2S(=O)(=O)c2ccc3nc(-c4ccccc4)[nH]c3c2)cc1 (stereo not given),"inconclusive: 56.2 µM [inhibitor, partial curve, poor fit]",
CCOc1ccc2nc3cc(NCc4ccc(OC)cc4)ccc3c(N)c2c1,"inconclusive: 39.8 µM [inhibitor, partial curve]",
CCOC(=O)C(=O)c1csc(NC(=O)COc2ccc(N(C)S(=O)(=O)c3ccc(F)cc3)cc2)n1,"inconclusive: 100 µM [inhibitor, single point]",
